Data reported in PMC4336329 (PLoS ONE, 2015).
In all, about 310,000 compounds went through this assay and about 2,200 (0.71%) showed an effect of 50% or more. The effect is printed as a negative number. Some of the results follow.

molecular target: human ether-à-go-go-related gene (hERG) potassium channel (human, UniProt Q12809); test: primary screen, population patch clamp on CHO cells stably expressing hERG
Sequence (Q12809 whole entry, looked up): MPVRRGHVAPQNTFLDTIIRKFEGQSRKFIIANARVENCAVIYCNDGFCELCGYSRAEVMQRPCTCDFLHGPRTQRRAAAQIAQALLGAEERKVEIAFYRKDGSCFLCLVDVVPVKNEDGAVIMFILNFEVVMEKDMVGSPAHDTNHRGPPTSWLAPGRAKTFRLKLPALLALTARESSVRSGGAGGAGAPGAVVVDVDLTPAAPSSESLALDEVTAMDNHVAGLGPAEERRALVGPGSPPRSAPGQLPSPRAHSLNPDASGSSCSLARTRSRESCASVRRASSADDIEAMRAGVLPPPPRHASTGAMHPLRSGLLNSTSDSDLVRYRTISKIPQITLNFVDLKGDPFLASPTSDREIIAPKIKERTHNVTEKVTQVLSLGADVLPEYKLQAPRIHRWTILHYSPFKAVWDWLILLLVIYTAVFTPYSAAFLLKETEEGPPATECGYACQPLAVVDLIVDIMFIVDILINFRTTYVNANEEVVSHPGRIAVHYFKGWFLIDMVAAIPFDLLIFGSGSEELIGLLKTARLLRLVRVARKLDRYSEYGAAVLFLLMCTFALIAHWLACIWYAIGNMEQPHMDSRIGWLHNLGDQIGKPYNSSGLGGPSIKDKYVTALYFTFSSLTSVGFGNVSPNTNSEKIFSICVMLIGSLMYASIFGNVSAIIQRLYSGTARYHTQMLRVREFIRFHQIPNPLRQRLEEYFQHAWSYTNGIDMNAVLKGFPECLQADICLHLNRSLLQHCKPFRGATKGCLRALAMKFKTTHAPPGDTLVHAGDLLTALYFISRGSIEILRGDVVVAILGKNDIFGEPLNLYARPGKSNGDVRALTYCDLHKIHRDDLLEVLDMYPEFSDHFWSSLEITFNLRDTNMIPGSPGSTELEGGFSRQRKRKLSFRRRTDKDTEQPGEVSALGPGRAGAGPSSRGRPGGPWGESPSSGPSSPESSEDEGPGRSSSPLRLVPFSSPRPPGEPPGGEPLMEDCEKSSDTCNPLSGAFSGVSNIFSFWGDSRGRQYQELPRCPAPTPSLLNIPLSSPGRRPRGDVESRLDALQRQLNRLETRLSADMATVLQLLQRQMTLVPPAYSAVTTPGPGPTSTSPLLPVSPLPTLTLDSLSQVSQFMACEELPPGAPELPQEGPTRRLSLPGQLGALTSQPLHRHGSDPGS

First: CCOc1ccc(CCNC(=O)CN2C(=O)NC3(CCCC3)C2=O)cc1OCC
Second: CN1CCN(CCCNC(=O)CCCOc2cc(=O)n(C)c3ccccc23)CC1
The “hERG current change (%, negative = inhibition) at 1uM” value of the first is higher: 12% for the first, 3.78% for the second.

Going from `CCn1c(SCC(=O)Nc2ccc(OCc3ccccc3)cc2)nnc1-c1ccco1` to `CCn1c(COc2cc(C)ccc2C(C)C)nnc1SCC(=O)Nc1nccs1`, the “hERG current change (%, negative = inhibition) at 1uM” value rises from 9.71% to 10.4%.

Compared with `CC(C)N(C(=O)CSc1nnc(Cc2ccc3c(c2)OCO3)n1C)C(C)C`, `CC(NC(=O)CCCc1nnc2n(C)c(=O)c3sccc3n12)c1ccccc1` (stereo not shown) is higher in “hERG current change (%, negative = inhibition) at 1uM” value: 3.49% for the first, 14.5% for the second.

Going from `COc1cccc(C(=O)N/N=C(\C)c2cccc(NC(=O)c3ccc(F)cc3)c2)c1OC` to `CC(=O)c1ccc(NC(=O)CC2Nc3cccc4cccc(c34)NC2=O)cc1` (stereo not shown), the “hERG current change (%, negative = inhibition) at 1uM” value rises from 0.263% to 18%.

Going from `CNc1ccc(Br)cc(C(=O)/C=C/c2ccc(Cl)cc2Cl)c1=O` to `O=C(COC(=O)c1ccc(F)cc1F)Nc1ccc(Cl)cn1`, the “hERG current change (%, negative = inhibition) at 1uM” value rises from -1.21% to 0.0609%.

First: Cc1cccc(NS(=O)(=O)c2cccc(C(=O)N3CCCCCCC3)c2)c1
Second: Cc1ccc(S(=O)(=O)N2CCN(C(=O)c3cccs3)CC2)cc1C
The “hERG current change (%, negative = inhibition) at 1uM” value of the first is higher: 5.66% for the first, 2.03% for the second.

Compared with `Cc1ccccc1-n1c(-c2csc3ccccc23)n[nH]c1=S`, `CCCCc1c(O)nc(SCC(=O)c2ccccc2)n(-c2ccccc2)c1=O` is higher in “hERG current change (%, negative = inhibition) at 1uM” value: 6.3% for the first, 12.7% for the second.

First: Cc1cc(NC(=O)C2C3C(=O)N(CCC(C)C)C(C(=O)NCc4ccccc4)C34C=CC2(C)O4)no1 (stereo not shown)
Second: O=C(NCC(=O)N(Cc1ccccc1)C(C(=O)NC1CCCC1)c1ccco1)c1ccco1 (stereo not shown)
The “hERG current change (%, negative = inhibition) at 1uM” value of the first is higher: 12.5% for the first, -7.02% for the second.

Compared with `COc1ccc(OC)c(CN2CCN(C(=O)c3ccco3)CC2)c1.O=C(O)C(=O)O`, `CSc1ccc(/C=N/N2CCN(Cc3ccccc3Cl)CC2)cc1` is lower in “hERG current change (%, negative = inhibition) at 1uM” value: 12.2% for the first, 9.96% for the second.

Compared with `O=c1[nH]c(C2CCN(S(=O)(=O)Cc3ccccc3)CC2)nc2c1nnn2Cc1ccccc1Cl`, `CCn1c(=O)c2sccc2n(Cc2ccccc2)c1=O` is lower in “hERG current change (%, negative = inhibition) at 1uM” value: 13.8% for the first, 8.5% for the second.

Compared with `Cc1ccc(C)c(C(=O)CN2C(=O)c3ccccc3S2(=O)=O)c1`, `COc1ccccc1-c1oc2ccccc2c1C#CC(C)(C)O` is higher in “hERG current change (%, negative = inhibition) at 1uM” value: 16.3% for the first, 16.5% for the second.

First: COc1cccc(-c2nc(CS(=O)(=O)CC(=O)Nc3cccc(C(C)=O)c3)c(C)o2)c1
Second: CCOC(=O)c1nn(-c2ccccc2)c(=O)cc1OCC(=O)Nc1cccc(OC)c1
The “hERG current change (%, negative = inhibition) at 1uM” value of the first is higher: 48.5% for the first, 7.64% for the second.

First: COc1cccc(CNC(=O)CCCn2nc(C)c3c(C)n(-c4ccc(C)cc4)nc3c2=O)c1OC
Second: CCc1ccc(CNC(=O)CCC(=O)N2Cc3cccc(OC)c3Oc3ncccc32)cc1
The “hERG current change (%, negative = inhibition) at 1uM” value of the first is higher: 13.1% for the first, -46.8% for the second.

First: COCCn1c(C)cc(C(=O)COc2ccc(C)nc2[N+](=O)[O-])c1C
Second: CCOC(=O)COc1c(Cl)cc(/C=C2\N=C(C)OC2=O)cc1OC
The “hERG current change (%, negative = inhibition) at 1uM” value of the first is lower: 4.72% for the first, 15.4% for the second.

First: CCc1ccc(N2C(=O)Nc3ccccc3C2(O)C(=O)N2CCN(c3ccccn3)CC2)cc1 (stereo not shown)
Second: O=C(Nc1ccccc1)c1ccc(CN2CCc3ccccc3C2)cc1
The “hERG current change (%, negative = inhibition) at 1uM” value of the first is lower: 1.81% for the first, 16.7% for the second.

Going from `FC(F)(F)c1cc(CCN2C(=S)NC[C@@H]2Cc2ccccc2)cc(C(F)(F)F)c1` to `Cn1c(N)nc2nc(CCc3ccccc3)c(=O)[nH]c2c1=O`, the “hERG current change (%, negative = inhibition) at 1uM” value falls from 15% to 13.7%.

First: CC(C)(C)NC(=O)NCC1CCCC1NC(=O)NC(C)(C)C (stereo not shown)
Second: COC(=O)c1c(C)[nH]c(C(C)=O)c1C
The “hERG current change (%, negative = inhibition) at 1uM” value of the first is higher: 11.6% for the first, 4.12% for the second.

First: Cc1c(CC(=O)NCC(C)C)c(=O)oc2cc3c(cc12)CCC(C)(C)O3
Second: Cc1noc(C)c1CCC(=O)N1CCCC(CCC(=O)NCc2ccccc2F)C1 (stereo not shown)
The “hERG current change (%, negative = inhibition) at 1uM” value of the first is higher: 13.9% for the first, 10.9% for the second.

First: Cc1cc(C(=O)N/N=C/c2ccc(C)s2)n[nH]1
Second: COc1ccc(S(=O)(=O)n2nc(OC(C)=O)cc2N)cc1
The “hERG current change (%, negative = inhibition) at 1uM” value of the first is higher: 14.1% for the first, 5.95% for the second.

First: CCn1c2ccc(/C(C)=N\O)cc2c2cc(/C(C)=N\O)ccc21
Second: CC(=O)c1ccc(NC(=S)NC(=O)CC(C)C)cc1
The “hERG current change (%, negative = inhibition) at 1uM” value of the first is lower: 10.5% for the first, 14% for the second.

First: COC(=O)C1CSC(C(=O)OC)N1C(=O)Nc1ccccc1 (stereo not shown)
Second: CCCOc1ccc(N2CC(C(=O)Nc3ccccc3C(=O)NC)CC2=O)cc1 (stereo not shown)
The “hERG current change (%, negative = inhibition) at 1uM” value of the first is higher: 7.39% for the first, -56.5% for the second.

First: CC(C)c1ccc(NC(=O)C2CC(=O)N(C3CCCC3)C2)cc1 (stereo not shown)
Second: CN(C)c1ccc(NC(=S)NC23CC4CC(CC(C4)C2)C3)cc1
The “hERG current change (%, negative = inhibition) at 1uM” value of the first is lower: 13.9% for the first, 21.3% for the second.

First: NC(=O)NC(CC(=O)N1CCc2ccccc2C1)c1ccc(Cl)cc1 (stereo not shown)
Second: O=C(NCCCN1CCCC1=O)c1ccc2c(=O)n(-c3ccccc3F)c(=S)[nH]c2c1
The “hERG current change (%, negative = inhibition) at 1uM” value of the first is higher: 9.39% for the first, 4.18% for the second.

Compared with `NS(=O)(=O)c1ccc(CCNC(=O)C2CCCO2)cc1` (stereo not shown), `NS(=O)(=O)c1cccc(NC(=O)c2ccno2)c1` is higher in “hERG current change (%, negative = inhibition) at 1uM” value: 13% for the first, 13.4% for the second.

Going from `O=c1nc(N2CCCC2)nc(Nc2ccccc2)[nH]1` to `CN(C)c1nc(-c2ccccc2)nnc1C(F)(F)F`, the “hERG current change (%, negative = inhibition) at 1uM” value falls from 13% to 3.22%.

Compared with `Cc1c(CCO)c(=O)n(-c2ccccc2)n1S(=O)(=O)c1c(Cl)cc(Cl)cc1Cl`, `Cc1nc(SCC(=O)Nc2ccccc2C(F)(F)F)c(C#N)c(C)c1CC(=O)c1ccc(Br)cc1` is higher in “hERG current change (%, negative = inhibition) at 1uM” value: 14.8% for the first, 22.1% for the second.

First: CCOC(=O)C1CCN(C(=O)CN(C)S(=O)(=O)c2ccc3c(c2)c(=O)n(C)c(=O)n3C)CC1
Second: CC(=O)O.O=c1/c(=C/c2ccc(O)cc2)sc2n1CCCN=2
The “hERG current change (%, negative = inhibition) at 1uM” value of the first is higher: 11.2% for the first, -6.58% for the second.

In the case of `O=C(NCCn1cc(SCc2ccc(F)cc2)c2ccccc21)c1c(F)cccc1F`, the “hERG current change (%, negative = inhibition) at 1uM” value was 11.2%.
